Assay results taken from paper PMC6919601, “Identification of Plasmodium dipeptidyl aminopeptidase allosteric inhibitors by high throughput screening” (PLoS ONE, 2019).
In all, about 110,000 compounds went through this assay and about 230 (0.21%) showed an effect of 50% or more. This is one part of the list.

biological target: DPAP1 (Plasmodium falciparum, UniProt Q8IIJ9); test: primary screen, percent inhibition; read by cleavage of a fluorogenic dipeptide substrate; higher = more effect of the substance; design: species or system P. falciparum D10 trophozoite lysates; single well
Sequence (Q8IIJ9 whole entry, looked up): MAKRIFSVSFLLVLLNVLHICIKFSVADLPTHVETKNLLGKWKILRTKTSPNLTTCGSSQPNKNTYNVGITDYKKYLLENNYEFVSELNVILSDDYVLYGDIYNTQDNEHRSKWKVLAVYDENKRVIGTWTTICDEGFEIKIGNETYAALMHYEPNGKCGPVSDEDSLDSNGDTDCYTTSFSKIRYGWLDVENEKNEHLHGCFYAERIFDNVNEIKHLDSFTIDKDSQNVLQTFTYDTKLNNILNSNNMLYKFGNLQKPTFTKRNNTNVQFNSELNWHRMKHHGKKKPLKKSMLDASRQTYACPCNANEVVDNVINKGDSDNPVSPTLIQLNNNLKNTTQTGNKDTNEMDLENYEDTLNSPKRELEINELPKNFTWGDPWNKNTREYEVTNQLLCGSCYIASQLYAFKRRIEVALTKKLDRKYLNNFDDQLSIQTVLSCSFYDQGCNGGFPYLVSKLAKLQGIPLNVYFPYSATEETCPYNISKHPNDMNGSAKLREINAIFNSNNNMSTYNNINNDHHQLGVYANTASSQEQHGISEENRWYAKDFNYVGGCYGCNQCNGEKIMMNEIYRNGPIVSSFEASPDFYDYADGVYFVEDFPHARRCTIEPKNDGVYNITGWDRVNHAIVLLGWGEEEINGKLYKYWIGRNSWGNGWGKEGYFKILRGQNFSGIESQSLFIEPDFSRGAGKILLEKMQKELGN
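Also: 30 min substrate incubation versus DMSO and 10 µM JCP410 controls.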

| Compound | % Inhibition @ 10 uM [%] |
| --- | --- |
| COc1ccc(CN2CCN(C(=O)Cc3ccccc3)CC2)cc1OC | 19.8 |
| COc1ccc(CN(C)CCc2ccccn2)cc1 | 0.147 |
| COc1ccc(C2NC(=O)Cc3cc(OC)c(OC)cc32)cc1OC (stereo not shown) | -3.44 |
| O=C1CC(N2CCN(C/C=C/c3ccccc3)CC2)C(=O)N1c1ccc(Cl)cc1 (stereo not shown) | 6.33 |
| COc1cccc(CNc2nc(SC)ncc2CO)c1 | -3.25 |
| CC(C)(O)C(=O)/C=C/c1ccccc1Cl | 5.29 |
| O=C(O)CCC(=O)Nc1ccc(N2CCN(CCO)CC2)cc1 | 3.91 |
| Cc1nn(C)c(C(=O)Nc2ccn(Cc3ccccc3F)n2)c1Br | 0.709 |
| Cc1nnc2c(NC(C)c3ccccc3)nc3ccc(C(=O)c4ccccc4)cc3n12 (stereo not shown) | 5.84 |
| COc1ccc(CCCC(=O)Nc2ccc(F)cc2)cc1 | -6.65 |
| O=C(CCN1C(=O)c2ccccc2C1=O)Nc1ccccc1C(=O)NC1CCCCCC1 | 1.08 |
| O=S(=O)(c1ccc(Br)c2nsnc12)N1CCC(Cc2ccccc2)CC1 | 15.4 |
| COc1ccc(Br)cc1CN1C(=O)c2ccccc2C1C(=O)NCC1CCCO1 (stereo not shown) | -3.21 |
| CCC(=O)N1c2ccccc2C(Nc2ccccc2)CC1C (stereo not shown) | -3.41 |
| CCc1cc(C(=O)Cc2nc3ccccc3s2)c(O)cc1O | -4.08 |
| COc1cc(C2c3c(oc4cc(C)c(C)cc4c3=O)C(=O)N2c2ccccn2)cc(OC)c1OC (stereo not shown) | -3.13 |
| Cc1c(CNC2CCCc3ccccc32)c(C(=O)O)c(C)n1Cc1ccccc1F (stereo not shown) | -0.23 |
| COc1cc(CNCCCSc2nnnn2C)cc(OC)c1OC | -2.88 |
| CCCN1C(=O)c2[nH]nc(-c3ccc(OC)cc3)c2C1c1cccnc1 (stereo not shown) | -4.67 |
| Cc1ccc2c(=O)cc(C(=O)N(Cc3ccc(Cl)cc3)C3CCS(=O)(=O)C3)oc2c1 (stereo not shown) | 0.248 |
| CCCOc1ccc(-c2nonc2NC(=O)C(C)C)cc1OCCC | 1.9 |
| Nc1c(S(=O)(=O)c2ccccc2)c2nc3ccccc3nc2n1CCO | -8.11 |
| Cc1c(C(=O)OC2CCCCC2)[nH]c2c1C(=O)CC(c1ccco1)C2 (stereo not shown) | -2.19 |
| Cc1ccc(Cn2cccc2/C=C2\C(=N)N3N=C(N4CCCC4)SC3=NC2=O)cc1 | 3.32 |
| O=C([C@@H]1C[C@@H]1c1ccccc1)N1CCOCC1 | 3.1 |

| Compound | % Inhibition @ 10 uM [%] |
| --- | --- |
| N#CC1=C(S)NC(=O)C(C#N)C12CCCCC2 (stereo not shown) | 57.8 |
| O=C(Nc1cc(Cl)ccc1Cl)C1CC(=O)N(c2ccc(Cl)cc2)C1 (stereo not shown) | 1.71 |
| Cc1ccc(CCNC(=O)C2CC(=O)N(CCC(C)C)C2)cc1 (stereo not shown) | 5.35 |
| C=CCNC(=O)COCc1cc(-c2cccs2)on1 | 1.6 |
| Nc1ncc(Br)cc1S(=O)(=O)NCCC(=O)N1CCN(c2ccccn2)CC1 | -0.0652 |
| N=C1/C(=C\c2ccc(O)c(O)c2)C(=O)N=C2SC(N3CCCC3)=NN12 | -1.66 |
| CC1(C)CC(=O)C2=C(C1)N(Cc1ccc(F)cc1)C(=O)C2(NC(=O)c1cccnc1)C(F)(F)F (stereo not shown) | 3.54 |
| Cc1ccc(S(=O)(=O)N(CC(=O)NC(C)c2ccccc2)Cc2ccccc2)cc1 (stereo not shown) | 0.131 |
| CCSC1=C(C#N)C2(CCCC2)C(C#N)C(=O)N1 (stereo not shown) | 1.44 |
| O=C(O)c1cccnc1SC1CC(=O)N(C2CCCCC2)C1=O (stereo not shown) | -4.43 |
| O=C(Cc1ccc(Cl)cc1)N1CCN(c2ccc(F)cc2)CC1 | -3.29 |
| O=C1c2cccnc2C(=O)N1Cc1ccc(S(=O)(=O)NCc2ccc(Cl)cc2)cc1 | 7.06 |
| CC(C)CNC(=O)c1nc(-c2ccc(Cl)cc2)n2c1CCCCC2 | 2.73 |
| O=C(c1cnc2c(c1)COc1ccccc1-2)c1cc(Cl)ccc1O | -10.8 |
| COc1cc(Cl)cc(Cl)c1C1C(C#N)=C(N)OC2=C1C(=O)CCC2 (stereo not shown) | -14.1 |
| CC(NC(=O)Cc1ccccc1)C1COc2ccccc2O1 (stereo not shown) | -1.88 |
| COc1cccc(C2C3=C(O)CC(c4ccccc4)CC3=Nc3ccccc3N2C(=O)CCC(=O)O)c1 (stereo not shown) | -0.25 |
| CN1CCN(c2ccc3nnc(CCC(=O)NCc4ccco4)n3n2)CC1 | -6.47 |
| Cc1cc(NC(=O)CSc2nnc(-c3ccc(C)c(C)c3)o2)no1 | -4.03 |
| COc1cc(OC)cc(C(=O)Nc2cccnc2)c1 | 13.2 |
| Cc1cc(/C=C2/NC(=O)N(Cc3ccccc3F)C2=O)c(C)n1-c1ccccn1 | -2.21 |
| CCN(CC)CCCNC(=O)CCn1c(=O)c2cccn2c2cccnc21 | 5.41 |
| Clc1ccccc1OCc1nn2c(COc3ccccc3)nnc2s1 | 0.0539 |
| N#Cc1cc2c(=O)n3ccccc3nc2n(Cc2ccccc2)c1=N | 0.408 |
| O=c1c(C(CC(O)c2ccc(-c3ccccc3)cc2)c2ccccc2)c(O)oc2ccccc12 (stereo not shown) | -2.62 |

| Compound | % Inhibition @ 10 uM [%] |
| --- | --- |
| Cc1cccc(CCNC(=O)c2cc3c(s2)-c2ccccc2OC3)c1 | -4.85 |
| Cc1cc(-c2ccccc2)n(-c2ccc(C(N)=O)cc2)n1 | 0.83 |
| Cc1cc(C)cc(NC(=O)Cn2cnc3c2c(=O)n(C)c(=O)n3C)c1 | -2.22 |
| O=C1c2ccncc2C(=O)N1c1cccc(C(F)(F)F)c1 | -3.34 |
| Cc1cccn2c(=O)c3cc(C#N)c(=O)n(Cc4ccco4)c3nc12 | -4.07 |
| CC1CCc2nc3sc4c(c3c(N)c2C1)CCCC4 (stereo not shown) | -3.34 |
| CC(C)Cc1nnc(O)c2c1nnn2Cc1ccccc1F | -1.31 |
| NC(=O)c1cc2nc3c(c(C(F)(F)F)n2n1)CCc1ccccc1-3 | -1.06 |
| CCCCc1n[nH]c(SCC(=O)Nc2nc(C)c(C(=O)OCC)s2)n1 | 3.72 |
| CCOc1ccccc1-n1c(CCC(=O)O)ccc1-c1cccs1 | -5.85 |
| CCC1CCc2nc3sc(C(=O)Nc4ccc(OC)cc4)c(N)c3cc2C1 (stereo not shown) | -4.21 |
| Cn1nc(C(=O)N2CCC(c3ccccc3)C2)c2c1-c1ccccc1S(=O)(=O)C2 (stereo not shown) | 3.71 |
| COc1ccc(Cl)cc1N(CC(=O)Nc1ccc(C(N)=O)cc1)S(C)(=O)=O | -5.14 |
| COc1c(C#N)c(C#N)c(OC)c(OC)c1OC | -6.01 |
| CCCN1C/C(=C\c2ccc3c(c2)OCO3)C(=O)/C(=C/c2ccc3c(c2)OCO3)C1 | 2.94 |
| OCC1CCCN1Cc1ccc(Cl)c(Cl)c1 (stereo not shown) | -3.5 |
| O=C(O)CSc1cc(NS(=O)(=O)c2ccc(Br)cc2)c2ccccc2c1O | -6.35 |
| O=C(c1ccccc1F)N1CCN(C(c2ccccc2)c2ccccc2)CC1 | 2.78 |
| O=C(NCC1CCCO1)C12CC3CC(CC(C3)C1)C2 (stereo not shown) | 2.22 |
| CCc1ccc(OCC(=O)Nc2ccc(S(=O)(=O)N3CCC(C)CC3)cc2)c(Br)c1 | -0.312 |
| Cc1cc(C)c(-c2c(NC(C)(C)C)c(=O)c2=O)cc1C | 3.08 |
| C=CCNC(=O)/C(=C\c1ccco1)NC(=O)c1ccco1 | 7.1 |
| COc1ccc(C(CC(=O)NCc2ccccc2Cl)N2Cc3ccccc3C2=O)cc1 (stereo not shown) | -5.54 |
| COc1ccc(C(=N)NOC(=O)c2cccc(F)c2)cc1 | 3.8 |
| CCn1c2c(c3cc(F)ccc31)CCCC2=O | 4.66 |

| Compound | % Inhibition @ 10 uM [%] |
| --- | --- |
| CC(=O)C1=C(C)OC(N)=C(C#N)C1c1cccs1 (stereo not shown) | 3.05 |
| CCC1CCCCN1C(=O)CSc1nnc(CNC(=O)COc2ccc(Cl)cc2)o1 (stereo not shown) | -3.39 |
| O=C(NCCCO)/C(=C/c1ccc2c(c1)OCO2)NC(=O)c1ccco1 | 0.222 |
| COc1ccccc1-c1nnc2sc(-c3cccc(Cl)c3)nn12 | -5.91 |
| O=C1c2ccccc2C(=O)c2c1cccc2S(=O)(=O)NCCO | 4.74 |
| CC(=O)c1ccc(S(=O)(=O)N2CCN(CCC#N)CC2)cc1 | -1.82 |
| Cc1cccc2sc(NC(=O)C(NS(=O)(=O)c3cccs3)C(C)C)nc12 (stereo not shown) | 0.0654 |
| CCN1CCN(C(=O)c2ccc(CS(=O)c3ccc(Br)cc3)o2)CC1 (stereo not shown) | 0.458 |
| CC(C)CNC(=O)c1cc(-c2ccc(Cl)c(Cl)c2)on1 | -1.21 |
| Nc1nc(-c2ccccc2)cc(-c2ccccc2)n1 | -3.38 |
| CCC(C)NC(=O)COc1cccc(C)c1C (stereo not shown) | 0.58 |
| CCOC(=O)N1CCN(C(=O)c2cc3c(ccc4ccccc43)oc2=O)CC1 | -8.88 |
| Cc1cc(C)cc(NC2=C(Cl)C(=O)N(Cc3ccccc3)C2=O)c1 | 2.76 |
| COc1cc2c(cc1OC)C(C)N(CCC(=O)O)CC2 (stereo not shown) | -2.29 |
| Cc1cccn2c(=O)c3cc(S(=O)(=O)c4ccc(Cl)cc4)c(=N)n(Cc4ccncc4)c3nc12 | 1.57 |
| O=C(O)CCCC(=O)Nc1ccccc1Br | -6.22 |
| Cc1nn(CC(=O)NCCCN(Cc2ccccc2)C(C)C)c(=O)c2nn(-c3ccccc3)c(C)c12 | -2.12 |
| CCN1CCN(Cc2cc3c(cc2[N+](=O)[O-])OCO3)CC1 | -0.828 |
| CC1CCCN(c2nc3nonc3nc2N2CCCC(C)C2)C1 (stereo not shown) | -2.15 |
| COCCN1C=C(C(=O)OC)C(c2cccc(Oc3ccccc3)c2)C(C(=O)OC)=C1 | 3.93 |
| CCc1ccc(/C=C2\C(=N)N3N=C(N4CCOCC4)SC3=NC2=O)cc1 | 28 |
| COc1ccc(C2CC(C(F)(F)F)n3ncc(C(=O)NC(C)C)c3N2)cc1 (stereo not shown) | -9.3 |
| Cc1ccc(CC2C(=O)N(CC(=O)O)C(=O)C2C)cc1 (stereo not shown) | 3.59 |
| COc1ccc(CNC(=O)CCc2c(C)c3cc4c(C)coc4cc3oc2=O)cc1OC | -0.808 |
| CCOC(=O)N1CCN(C/C=C/c2ccc(N(C)C)cc2)CC1 | -11.2 |
